# Laboratory results as given in PubChem BioAssay AID651820 (National Center for Advancing Translational Sciences (NCATS), 2012).
# The campaign covered roughly 340,000 compounds. About 12,000 (3.5%) were called active. The shares of active, inactive and inconclusive entries below differ from those in the screen. The call rests on the fitted dose curve; in most records, active means well fitted inhibition curve with a large enough effect; inconclusive means small, poorly fitted or top-dose-only effect, or another doubt; inactive means no such curve, though single readings can be large or run the other way. No potency is given beside an inconclusive call; the fits are too rough.
# Assay: qHTS Assay for Inhibitors of Hepatitis C Virus (HCV)
# Settings: Huh7.5.1 HCVcc-Cre (HCVcc is cell-culture hepatitis C virus) infection, luciferase reporter, 44 h; series mostly up to 41.8 µM
# Outline: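 Infectious HCV cell culture screen: compound-treated cells (1,000/well, pre-plated 4 h) are infected with HCVcc-Cre at roughly 0.5 moi and grown 44 h. Infection is quantified by luciferase signal after 15 min substrate incubation at room temperature.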
# Potency means the concentration at half of the fitted maximal effect; tags describe the fitted curve by direction and shape.
row,Compound,Potency
1,CNc1ccccc1-n1ccc(-c2ccccc2)n1,"inconclusive [inhibitor, full curve, poor fit]"
2,N=c1sccn1CC(=O)Nc1cc(Cl)ccc1[N+](=O)[O-],"inconclusive [inhibitor, single point]"
3,CSc1nc(-c2ccccc2)cc(C)c1C#N,active: 10 µM
4,CN1CCN(Cc2c(O)ccc3occ(C(=O)c4ccccc4)c23)CC1,"inconclusive [inhibitor, single point]"
5,CCCN1C(C)C(C(=O)OCC)=CN(Cc2ccc(Br)cc2)S1(=O)=O (centres undefined),"inconclusive [inhibitor, partial curve]"
6,Cc1cccc(N=C2NN=C(c3c(C)[nH]c4ccccc34)CS2)c1,"inconclusive [inhibitor, single point]"
7,Cc1ccc(/C=C/S(=O)(=O)Nc2ccc(C)cc2)cc1,inactive
8,COc1ccc(/C=C2/SC(=S)N(CCCC(=O)Nc3ccccc3C(=O)O)C2=O)cc1,inactive
9,C#CCOCCOCCOCCNc1nc(N2CCN(C(=O)CCCCCCCCCCNC(=O)[C@H](CCCN=C(N)N)n3cc(C[C@@H](C)CC)nn3)CC2)nc(N2CCN(C(=O)CCCCCCCCCCNC(=O)[C@@H]([C@H](C)CC)n3cc(CCCCCN)nn3)CC2)n1,"inconclusive [inhibitor, single point]"
10,NC(=O)c1ccc(Cc2ncc(C(F)(F)F)cc2Cl)s1,"inconclusive [inhibitor, partial curve]"
11,CC1Cc2ccccc2N1c1ncnc(N)c1[N+](=O)[O-] (centres undefined),inactive
12,CCCC(=O)NCc1nc2ccccc2n1CC(=O)c1ccccc1,inactive
13,COc1ccccc1NC(=O)C(=O)NCC(c1ccco1)N1CCc2ccccc21 (centres undefined),"inconclusive [inhibitor, partial curve]"
14,Cc1ccc(NC(=O)CN2CCC(C(=O)c3ccc(F)cc3)CC2)cc1,"inconclusive [inhibitor, partial curve]"
15,CC(=O)Nc1cccc(C(=O)/C=C/c2ccc(Br)cc2)c1,"inconclusive [inhibitor, single point]"
16,CC1CCc2c(sc3ncnc(SCC(=O)c4ccccc4)c23)C1 (centres undefined),"inconclusive [inhibitor, single point]"
17,CCOC(=O)c1c(C)oc2cc(Cl)c(O)c(CN(C)C)c12,"inconclusive [inhibitor, single point]"
18,Cc1ccc(-c2noc(C3CCCN(C(=O)c4cccc(Cl)c4)C3)n2)o1 (centres undefined),"inconclusive [inhibitor, single point]"
19,Cc1nc2c3cc(Cl)ccc3n(CCN3CCCCC3)c2s1,"inconclusive [inhibitor, single point]"
20,O=C(Cc1cccc(C(F)(F)F)c1)Nc1ccccc1N1CCCC1,"inconclusive [inhibitor, single point]"
21,CN1CCN(C(=O)/C=C/c2ccc([N+](=O)[O-])o2)CC1,"inconclusive [inhibitor, partial curve]"
22,COc1ccc(N2CCN(Cc3cc(=O)oc4cc(-c5ccccc5)c(O)cc34)CC2)cc1,inactive

row,Compound,Potency
1,COc1ccc(Nc2oc(COc3cccc(C)c3)nc2C#N)cc1,"inconclusive [inhibitor, partial curve]"
2,Cc1ccc2sc(N(CCCN(C)C)C(=O)c3ccc(S(=O)(=O)N4CCc5ccccc5C4)cc3)nc2c1C,"inconclusive [inhibitor, partial curve]"
3,O=C(Nc1cccc(NC(=O)c2ccccc2Cl)c1)c1ccc([N+](=O)[O-])o1,active: 10 µM
4,Cc1ccnc(NC(=O)CSc2ccc3c(c2)OCCO3)c1,"inconclusive [inhibitor, single point]"
5,CCN(CC(=O)Nc1c(F)cccc1F)C(=O)C1CC1,inactive
6,CCN(Cc1nc2ccccc2c(=O)[nH]1)C(=O)c1cccc(NC(=O)c2cccs2)c1,"inconclusive [inhibitor, partial curve, poor fit]"
7,Clc1ccc(CSc2nnc(Cn3cnc4ccccc43)o2)cc1,"inconclusive [inhibitor, full curve]"
8,CC(Oc1cccc(Cl)c1)C(=O)Nc1ccc([N+](=O)[O-])cn1 (centres undefined),inactive
9,O=[N+]([O-])c1cc([As](=O)(O)O)ccc1O,inactive
10,Cc1ccc(-n2nnnc2SCC(=O)Nc2cccnc2Cl)cc1,inactive
11,N#Cc1ccccc1CSc1nc2ncc(Br)cc2[nH]1,"inconclusive [inhibitor, single point]"
12,COc1ccc(OC)c(-c2cc(-c3cccnc3)nc(N)c2C#N)c1,"inconclusive [inhibitor, full curve, poor fit]"
13,O=C(CSc1nnc(-c2cccnc2)s1)Nc1ccccc1,inactive
14,CN(C)CCCN1C(=O)c2cccc3cccc(c23)C1=O,"inconclusive [inhibitor, partial curve]"
15,CCCn1cc(CN2CCCC(C(=O)c3cccc(OC)c3)C2)c(C)n1 (centres undefined),"inconclusive [inhibitor, single point]"
16,CCOc1ccc(NC(=O)CN2C(=O)CSc3ccc(S(=O)(=O)N4CCCC4)cc32)cc1,"inconclusive [inhibitor, partial curve]"
17,CCn1ncc(CNC(=O)CCSc2nc(-c3ccco3)cc(C(F)(F)F)n2)c1C,active: 10 µM
18,Cc1[nH]c2ccccc2c1C(=O)COC(=O)c1cccc(S(=O)(=O)N2CCCCC2)c1,"inconclusive [inhibitor, single point]"
19,CCN(CCCNC(=O)CN(C)S(=O)(=O)c1cccc2nsnc12)c1cccc(C)c1,"inconclusive [inhibitor, partial curve]"
20,CCCCOc1ccc(NC(=O)CSc2cccc3cccnc23)cc1,inactive
21,COc1ccc(C(=O)Nc2ccccn2)cc1S(=O)(=O)N1CCOCC1,inactive
22,CC(C)c1ccc(C(CC(=O)O)NC(=O)c2cccs2)cc1 (centres undefined),"inconclusive [inhibitor, single point]"
